“And” between values parts separate entries of the source, which are not always exact repeats. Equal values may be shown once. Read-outs that look alike come from different tables or passages of the source.
Experiments:
[1] = Tolerability in mice injected with compound 2a (adverse events, body weight); format: in vivo
G93A mice = assay: Rotarod motor function in G93A mice; format: in vivo, mouse
Protocol: Having established that compound 2a crosses the BBB we started to treat mice carrying the G93A mutant form of the SOD1. Starting from day 30, G93A mice and their WT litters were daily injected with compound 2a (10 mg/kg) or vehicle. […] Indeed, starting from day 80 the latency to fall progressively diminished in vehicle-treated G93A. Indeed we recorded a 30% reduction of this parameter at day 100 when compared to values recorded at day 50 (FIG. 8C).
SOD1 mutations increase the propensity of this protein to aggregate in cells (Johnston 2000). We checked whether compound 2a could reduce the accumulation of G93A aggregates in vivo. Starting at post-natal day 83, we injected G93A mice and WT littermates daily with compound 2a (10 mg/kg). We scored motor performances in both vehicle- and compound 2a-treated G93A mice until day 103. […] At day 103, we resolved SC protein extracts by blue-native polyacrylamide gel electrophoresis, and probing these gels with anti-SOD1 antibodies we observed high molecular weight smears in G93A mice that were completely absent in WT litters. […]
Motor activity of G93A mice was assessed by rotarod. […] For each session five mice were placed on an accelerating rotor (4-40 rpm) and the latency to fall was recorded, with a maximum limit for individual animal set at 900 s.

[2] = system: Neuro2a cells receiving H2O2; assay: H2O2-induced cell death in Neuro2a cells; format: cell-based, mouse; settings: compound 10 μM, H2O2 200 μM, 48 hours
Protocol: We tested the specificity of compound 2a in an assay based on H2O2-induced chromosomal breaks that lead to DNA fragmentation and cell death. In principle such DNA lesions are the cause of cell death according to a process that is not influenced by the retromer. Thus, our leads should not be able to modulate rates cell survival in Neuro2a cells receiving H2O2. We incubated Neuro2a cells with 200 μM of H2O2 along with compounds 2a, 2c, 2d and 2g (10 μM).
(§1) Cell survival experiments were run on 96-well plates using Cell Counting Kit-8 (CCK8) survival kit (96992-Sigma) according the manufacturer's recommendations. Compound 2a cytotoxicity was tested on Neuro2a cells receiving increasing amount of compound 2a (1, 10, 50, 100, 200, 500 and 1000 μM) for 48 hours.

Neuro2a cells = assay: Cytotoxicity of compound 2a in Neuro2a cells (cell survival, CCK8); format: cell-based, mouse
Protocol: as §1

VPS35 = VPS35 (Mus musculus, UniProt Q9EQH3+Q9QZ88); assay: VPS35 MFI in NeuN+ MNs of G93A mice; format: in vivo; design: endogenous in cells; host or cells: Neuro2a; settings: 10 mg/kg, day 100, versus vehicle-treated G93A
Excerpt: We next assayed retromer proteins labelling sections of mice sacrificed at day 100 for VPS35 and NeuN. […] Similarly, we observed that VPS26 levels were increased in G93A mice receiving compound 2a (FIG. 11B). We further corroborated our experimental finding observing that compound 2a increased retromer functionality. The cation-independent mannose 6-phosphate receptor (CI-MPR) is a cargo (Arighi et al., 2004) of the retromer complex that is unstable in VPS26 knockout cells (Seaman 2004). We observed a substantial reduction of CI-MPR MFI levels in MNs of vehicle-treated G93A mice when compared with WT litters (FIG. 11C). […]
Fluorescence intensity levels of VPS35, VPS26, Sortilin, CTSD and Ubiquitin were calculated using NHI-Image J software (US National Institutes of Health) according to the following protocol: stacks of confocal images were used to generate the maximal projections (Las-X) and then post-processed by NHI-Image J to crop single NeuN^+ MNs from the ventral horn of the spinal cord. We next performed background (calculated on adjacent slices only receiving secondary antibodies) subtraction for each channel, before applying the NHI-Image J mean filter (with radius 2.0 pixels) to calculate mean NeuN fluorescence levels in individual MN. […] On this selected ROI, we calculated mean fluoresce levels (MFI) of each protein.

With `N=C(N)NN=Cc1cccc(C=NNC(=N)N)c1` [Compound 2a, 1,3-Bis-amino guanidine phenyl hydrazone] the body weight ([1]; 10 mg/kg daily from day 30, versus vehicle) was “small drop of the body weight when compared with mice receiving the vehicle treatment, although such reduction did not reach statistical significance”, the “cell toxicity and adverse events” value ([1]; all experiments, mice injected with compound 2a) was “did not observe cell toxicity in Neuro2a as well as any adverse events in mice” and the “locomotion performances (latency to fall, accelerating rotarod)” value (G93A mice; 10 mg/kg daily from day 30) was “substantial amelioration of the locomotion performances”. The “motor performances (latency to fall)” value (G93A mice; 10 mg/kg daily from day 83 to day 103) was “general attenuation of motor deficits”, the “neuronal firing (spikes)” value (primary cortical neurons; highest concentration of 2a (100 μM)) was “slight, but not significant, reduction of spikes” and the “neuronal firing (spikes)” value (primary cortical neurons; low concentrations of compound 2a) was “did not alter neuronal firing”. The “cell survival with H2O2 with or without compound” value [2] was “did not result in any significant difference”, the “toxic effects in cells (cell survival)” value (Neuro2a cells; 10 μM, untransfected Neuro2a) was “did not elicit toxic effects in cells” and the LD50 (Neuro2a cells; Neuro2a, increasing amount of 2a for 48 hours, non-linear fitting of cell survival) was ~260 µM and 257.9 µM. The “fluorescent intensity levels of VPS35 (MFI)” value (VPS35) was “significantly increased”.

— US20220213030A1, “AMINOGUANIDINE HYDRAZONES AS RETROMER STABILIZERS USEFUL FOR TREATING NEUROLOGICAL DISEASES” (OSPEDALE SAN RAFFAELE SRL, priority 2019, published 2022)
